The supplement of paper PMC11876631
Changes are numbered by the printed parent chain. In names and notes the source's numbering stands. ± gives the standard deviation of the averaged measurements. Laboratory Escherichia coli strains with one amino-acid change in an essential protein, pooled on minimal glucose agar with carbenicillin or gentamicin at twice the control MIC (plus kanamycin and chloramphenicol for the plasmids), 48 h. Fold change of barcode share against drug-free plates; higher = less susceptible. Active = above 20 in both replicates (the paper's putatively resistant). '<' = one read or none on drug, '>' = one read or none on a drug-free plate. Shares are relative, so most strains fall below 1 when a few take over. Listed are strains with at least 15 reads on both drug-free plates, and hits; most hits rest on fewer reference reads. Replicate rank correlation about 0.5. Edits are read from barcodes.

B1: metL F638A (protein)
chain: MSVIAQAGAKGRQLHKFGGSSLADVKCYLRVAGIMAEYSQPDDMMVVSAAGSTTNQLINWLKLSQTDRLSAHQVQQTLRRYQCDLISGLLPAEEADSLISAFVSDLERLAALLDSGINDAVYAEVVGHGEVWSARLMSAVLNQQGLPAAWLDAREFLRAERAAQPQVDEGLSYPLLQQLLVQHPGKRLVVTGFISRNNAGETVLLGRNGSDYSATQIGALAGVSRVTIWSDVAGVYSADPRKVKDACLLPLLRLDEASELARLAAPVLHARTLQPVSGSEIDLQLRCSYTPDQGSTRIERVLASGTGARIVTSHDDVCLIEFQVPASQDFKLAHKEIDQILKRAQVRPLAVGVHNDRQLLQFCYTSEVADSALKILDEAGLPGELRLRQGLALVAMVGAGVTRNPLHCHRFWQQLKGQPVEFTWQSDDGISLVAVLRTGPTESLIQGLHQSVFRAEKRIGLVLFGKGNIGSRWLELFAREQSTLSARTGFEFVLAGVVDSRRSLLSYDGLDASRALAFFNDEAVEQDEESLFLWMRAHPYDDLVVLDVTASQQLADQYLDFASHGFHVISANKLAGASDSNKYRQIHDAFEKTGRHWLYNATVGAGLPINHTVRDLIDSGDTILSISGIFSGTLSWLALQFDGSVPFTELVDQAWQQGLTEPDPRDDLSGKDVMRKLVILAREAGYNIEPDQVRVESLVPAHCEGGSIDHFFENGDELNEQMVQRLEAAREMGLVLRYVARFDANGKARVGVEAVREDHPLASLLPCDNVFAIESRWYRDNPLVIRGPGAGRDVTAGAIQSDINRLAQLL
B2: metL F638D (protein)
chain: B1 chain with A638D
B3: metL F638Q (protein)
chain: B1 chain with A638Q
B4: metL F638W (protein)
chain: B1 chain with A638W
B5: metL F638P (protein)
chain: B1 chain with A638P
B6: metR F37A (protein)
chain: MIEVKHLKTLQALRNCGSLAAAAATLHQTQSALSHQASDLEQRLGFRLFVRKSQPLRFTPQGEILLQLANQVLPQISQALQACNEPQQTRLRIAIECHSCIQWLTPALENFHKNWPQVEMDFKSGVTFDPQPALQQGELDLVMTSDILPRSGLHYSPMFDYEVRLVLAPDHPLAAKTRITPEDLASETLLIYPVQRSRLDVWRHFLQPAGVSPSLKSVDNTLLLIQMVAARMGIAALPHWVVESFERQGLVVTKTLGEGLWSRLYAAVRDGEQRQPVTEAFIRSARNHACDHLPFVKSAERPTYDAPTVRPGSPARL
B7: metR F37Q (protein)
chain: B6 chain with A37Q
B8: metR F37W (protein)
chain: B6 chain with A37W
B9: metR F37D (protein)
chain: B6 chain with A37D

Biological target: Escherichia coli (laboratory strain)
Assay: barcode share on antibiotic plates over drug-free plates; higher = less susceptible
Experimental: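 A pool of E. coli strains, each edited to carry one amino-acid change in an essential protein, was grown for 48 h on minimal glucose agar with or without antibiotic; strain barcodes were sequenced; mean of two replicates.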

[1] = antibiotic: carbenicillin, 2× MIC (3.1 µg/mL)
[2] = antibiotic: gentamicin, 2× MIC (MIC 0.45 µg/mL)

| Protein | fold change of barcode share [1] | fold change of barcode share [2] |
| --- | --- | --- |
| B1 | 0.481 ± 0.097 | 0.0158 ± 0.015 |
| B2 | 0.593 ± 0.084 | 0.0139 ± 0.0022 |
| B3 | 0.585 ± 0.1 | 0.00895 ± 0.0068 |
| B4 | 0.49 ± 0.1 | 0.00782 ± 0.009 |
| B5 | 0.321 ± 0.019 | 0.0103 ± 0.009 |
| B6 | 1.43 ± 0.18 | 0.0156 ± 0.017 |
| B7 | 1.66 ± 0.68 | 0.0389 ± 0.029 |
| B8 | 1.71 ± 0.44 | 0.0108 ± 0.011 |
| B9 | 0.549 ± 0.016 | 0.0129 ± 0.00055 |
